Experimental data from PubChem BioAssay AID485294 (National Center for Advancing Translational Sciences (NCATS), 2010).
The whole screen tested about 370,000 compounds, of which about 150 (0.041%) were called active. The inconclusive results got no clear call from the source; some entries with a clear call stand among them for comparison. Calls come from the whole dose curve; as a rule, active = well fitted inhibition curve with a large enough effect; inconclusive = small, poorly fitted or top-dose-only effect; inactive = flat fitted curve, though single readings scatter. No potency is given beside an inconclusive call; the fits are too rough.

Each compound was assayed against Beta-lactamase (Escherichia coli (strain K12)) (UniProt P00811) (assay: qHTS Inhibitors of AmpC Beta-Lactamase (assay with detergent)). Settings: AmpC hydrolysis of nitrocefin, absorbance 480 nm, 0.01% Triton; series mostly up to 114 µM.
Summary of the method: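 AmpC (5.3 nM in the dispensed reagent) in 20 mM phosphate pH 7.0 with 0.01% (detergent screen) or 0.0001% Triton X-100 was preincubated with compounds for 15 min at room temperature. Nitrocefin was then added from an 800 uM solution, and hydrolysis was followed at 480 nm.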
Note: nearly all actives have a fitted effect of over 25% in size.
Potency is the fitted concentration of half-maximal effect; tags give direction and shape of the fitted curve.

Sequence of UniProt P00811 (P00811 whole entry, looked up): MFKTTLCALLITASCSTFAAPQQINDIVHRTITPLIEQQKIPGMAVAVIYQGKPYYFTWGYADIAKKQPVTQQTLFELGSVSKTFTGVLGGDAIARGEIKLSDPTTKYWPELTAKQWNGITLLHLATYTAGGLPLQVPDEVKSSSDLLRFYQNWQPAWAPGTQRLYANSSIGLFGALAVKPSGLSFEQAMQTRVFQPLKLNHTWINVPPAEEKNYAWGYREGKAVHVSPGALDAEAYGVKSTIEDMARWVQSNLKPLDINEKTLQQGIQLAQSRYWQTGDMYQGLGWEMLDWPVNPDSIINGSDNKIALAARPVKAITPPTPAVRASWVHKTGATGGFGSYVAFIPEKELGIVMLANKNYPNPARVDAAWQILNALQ

SMILES	Potency
O=C(c1cc2ccccc2s1)N1CCN(c2ccccn2)CC1	inconclusive [inhibitor, single point]
CC(C)(C)C(=O)Nc1cc(NC(=O)C(C)(C)C)cc(C(=O)Nc2cc(C(=O)O)cc(C(=O)O)c2)c1	inconclusive [inhibitor, partial curve, poor fit]
COc1cccc(NC(=S)Nc2ccc(Br)cc2Cl)c1	inactive
CCC1=NN(S(=O)(=O)c2ccc(C)cc2)C(O)(C(F)(F)F)C1 (stereo unspecified)	inconclusive [inhibitor, full curve]
COc1cc(C(c2sc3nc(C)nn3c2O)N2CCOCC2)cc(OC)c1OC (stereo unspecified)	inconclusive [inhibitor, full curve, poor fit]
COc1ccc(C2=Nn3c(nnc3-c3ccccn3)SC2)cc1	inconclusive [inhibitor, full curve, poor fit]
O=C(CC1C(=O)NCCN1Cc1cccc(F)c1)NCCCN1CCCC1=O (stereo unspecified)	inconclusive [inhibitor, full curve]
COCCn1nnnc1C(c1cc2cc(OC)ccc2[nH]c1=O)N1CCC(Cc2ccccc2)CC1 (stereo unspecified)	inconclusive [inhibitor, single point]
CN(Cc1ccccc1)C(=O)Cc1ccccc1	inconclusive [inhibitor, partial curve, poor fit]
Cc1cccc(CN2CCN(C(c3ccccc3)c3ccc(Cl)cc3)CC2)c1 (stereo unspecified)	inactive
O=S(=O)(c1ccc(Br)s1)N1CCN(c2ccccc2)CC1	inactive
Cc1ccc(NC(=O)CSc2nnc3ccc(-c4ccncc4)nn23)cc1	inconclusive [inhibitor, full curve, poor fit]
CC(=C/C(=O)O)/C=C/c1ccco1	inconclusive [inhibitor, full curve, poor fit]
CCOc1ccc(CNCc2c(C(=O)O)n(Cc3ccccc3C)c3cc(OC)ccc23)cc1OC	inactive
Cc1ccc(NC(=O)CN(C)C(=O)c2ccc(C(F)(F)F)cc2)cc1	inconclusive [inhibitor, single point]
Cc1cc(C)cc(OCC(=O)Nc2cccc(-c3nnc(-c4ccco4)o3)c2)c1	inactive
Cc1ccc(SCc2[nH]nc3c2C2(C(=O)Nc4ccc(F)cc42)C(C#N)=C(N)O3)cc1 (stereo unspecified)	inactive
COc1ccc(-n2c(SCC(=O)N3CCC(C(=O)O)CC3)nc3ccccc3c2=O)cc1OC	inactive
Cc1cccc(COc2ccccc2C(=O)N(C)CC(=O)Nc2cccc(F)c2)c1	inactive
COc1cc(C(=O)N/N=C/c2ccc(OC(=O)c3ccccc3Cl)cc2)ccc1O	inactive
N#Cc1nc(-c2ccccc2F)oc1NCc1ccccc1	inactive
Cc1ccc(NC(=O)CCS(=O)(=O)c2cccc3nonc23)c(Cl)c1	inconclusive [inhibitor, full curve, poor fit]
COc1ccccc1NC(=O)Cn1ccn(-c2cc(C)cc(C)c2)c(=O)c1=O	inactive

SMILES	Potency
COc1ccc(N2C(=O)c3cc4ccccc4cc3C2=O)cc1	inactive
CCOc1ccc(/C=N/N(C)c2ccccc2)cc1OC	inconclusive [inhibitor, partial curve, poor fit]
COc1ccccc1C(=O)COC(=O)CNS(=O)(=O)c1ccc(C)c(C)c1	inconclusive [inhibitor, full curve, poor fit]
CC(C)NC(=O)c1ccc(N2CC3CC(C2)c2cccc(=O)n2C3)c([N+](=O)[O-])c1 (stereo unspecified)	inconclusive [inhibitor, single point]
COc1ccc(Cc2nc(-c3ccncc3)no2)cc1	inactive
CC(=O)N(c1cccc(Br)c1)C1C=CS(=O)(=O)C1 (stereo unspecified)	inconclusive [inhibitor, full curve]
CC(C)(C)C(=O)Nc1nnc(SCc2ccc(F)cc2)s1	inconclusive [inhibitor, full curve, poor fit]
O=C(COc1ccc(Cl)cc1Cl)Nc1ccccn1	inactive
COc1ccc(-c2nc(NC(=O)C3=NN(c4cccc(C)c4)C(=O)CC3)sc2C)cc1	inactive
COc1cc(-c2c(C#N)c(N)nc(SCc3ccncc3)c2C#N)cc(OC)c1OC	inconclusive [inhibitor, partial curve, poor fit]
FC(F)(F)c1ccc(Nc2nnnc3ccccc23)cc1	inactive
CCCCCn1c(CN2CCN(CCO)CC2)nc2c1c(=O)n(C)c(=O)n2C	inconclusive [inhibitor, full curve, poor fit]
Cc1cccc(N2C(=O)SC(N(C)c3ccccc3)C2=O)c1 (stereo unspecified)	inconclusive [inhibitor, full curve, poor fit]
CCC(C)Nc1nc2c(c(=O)n(C)c(=O)n2C)n1Cc1ccc(F)cc1 (stereo unspecified)	inconclusive [inhibitor, single point]
CN=c1sc(C(=O)Nc2cccc(Cl)c2)cc(=O)n1C	inconclusive [inhibitor, single point]
N#CCOc1coc(CN2CCN(c3cccc(Cl)c3)CC2)cc1=O	inconclusive [inhibitor, full curve, poor fit]
CCOc1ccccc1Oc1nc(C)nc2c1oc1ccccc12	inactive
c1ccc(CCCOCCC2CO2)cc1 (stereo unspecified)	inconclusive [inhibitor, full curve, poor fit]
OCCNCc1cc(Br)ccc1OCc1ccc(Cl)cc1Cl	inactive
Cc1nn(-c2cc(C)c3ccccc3n2)c2c1C1C(C2)C1(C)C (stereo unspecified)	inconclusive [inhibitor, full curve, poor fit]
O=C(NCc1ccc(F)cc1)C1CCN(C(=O)Nc2ccc(F)cc2)CC1	inconclusive [inhibitor, full curve, poor fit]
COc1ccc(N2CCN(C(CNC(=O)C(=O)NCc3ccncc3)c3ccco3)CC2)cc1 (stereo unspecified)	inconclusive [inhibitor, full curve, poor fit]
CCc1ccc(NC(=O)COc2coc(CN3CCN(c4ccccc4)CC3)cc2=O)cc1	inactive
